Sequences and labels used below:
B1: LINE1-mini (parent)
chain: GGCAGAGCUCAACACAGCGUGGCAAAGUGGCUGUGGCUAGACUGCC

The source gives no read counts; variants with many changes may rest on few reads.

The variants in this data set derive from B1. The experiment in a line: self-cleavage, relative activity (ratio to wild type); higher = more cleavage; in vitro, sequencing; the parent is a self-cleaving ribozyme.
With G1A C10G G19A, the self-cleavage worked out at 0.2. In the case of G1A C3A A16C, the self-cleavage turned out to be 1.12. Consider G1A A26C A41U, for which the self-cleavage amounted to 2.09. In the case of G1A G2A G22A G35C, the self-cleavage worked out at 0.25.

G1A C10A G19C: the self-cleavage came out at 0.04. In the case of G1A G5A G22A G36U, the self-cleavage came out at 0.14.

For G1A G2A A11C C13A G27C, the self-cleavage stood at 0.04. G1A C3A G30U C46A: the self-cleavage was 0.45. As for G1A G2A A6G A25U C31A C37G A39U, the self-cleavage worked out at 0.19. On to G1A G7A C10U A11C, for which the self-cleavage turned out to be 0.07. Take G1A C3A A4C U9A C18U G19C A25C: the self-cleavage is 0.24. For G1A G5C G21C G36A G40A, the self-cleavage was 0.04. Consider G1A G2A A16G A24C, for which the self-cleavage amounted to 1.05.

In the case of G1A C37A U38A, the self-cleavage was 0.04. With G1A C18G U32A U34C, the self-cleavage came out at 0.06. To G1A C10A A24C G29U C37U belongs 0.02; to G1A G2U G5A G22A, 0.46; to G1A C3G A11G G21C U32C, 0.01. Regarding G1A G17A C31A G40U C45A, the self-cleavage is 0.01.

With G1A G17A C23U C31A U34A C45G, the self-cleavage was 0.03. Consider G1A G2U C37G, for which the self-cleavage is 0. Turning to G1A G2U U9A G40A, the self-cleavage came to 0.32. For G1A G17U U28G G35C, the self-cleavage was found to be 0.05. Next, G1A A26G U38G: 0.02; G1A C13G A16C G27U G30U C45U: 0.13. Regarding G1A G2A A4G G44A, the self-cleavage was determined as 0.16. Consider G1A C18U G29A U32G A41G, for which the self-cleavage came out at 0.05. For the variant G1A G7U G29A U38G, the self-cleavage turned out to be 0.01. For G1A G17A G22C C45U, the self-cleavage came to 0.77. To G1A C8A G29C U34A belongs 0.28; to G1A G5A C8U, 1.91.

Turning to G1A C3G A6G U34A G35C U38A, the self-cleavage is 0.17. For G1A G5U A16G G36A, the self-cleavage is 0.01. In the case of G1A G7A C45U, the self-cleavage worked out at 1.51. Next, G1A C10A A11U A26U: 0.02; G1A A25C G29A: 2.13. In the case of G1A G2U C3A G17C G29A G30A U32A G35A, the self-cleavage is 0.32. To G1A C10A A11C belongs 0.13; to G1A G17C C18U G36C U38C, 0.01; to G1A A25U C31U, 0.11.

Turning to G1A G5U G27C, the self-cleavage is 0.08. Turning to G1A G2A C8G, the self-cleavage was 0.07. For G1A C10A G33U G44U, the self-cleavage was 0.05. Next, G1A C10A U34A: 0.14; G1A C10U G29A: 0.52; G1A G2A G5U G27A: 0.26.

Turning to G1A G2U A14C G36C G40U, the self-cleavage was 0.07. G1A G17A G19C A26G: the self-cleavage was 0.07.

For the variant G1A C15U U32G, the self-cleavage was 0.08. On to G1A G5A U9G A25G G36C C37U A41U, for which the self-cleavage was found to be 0.14. As for G1A C3G G36U U38G A39U, the self-cleavage stood at 0.47. As for G1A C3U A25G, the self-cleavage was 0.51. Take G1A G2C A14U G21A: the self-cleavage stood at 0.11. As for G1A C13U U28A, the self-cleavage is 0.12. For G1A C31G U32A A39G, the self-cleavage stood at 0.01. For the variant G1A G17U C23A, the self-cleavage was determined as 0.95. In the case of G1A C10G G19A C31A, the self-cleavage is 0.04. With G1A G2U A26U G30C, the self-cleavage was determined as 0.73. Take G1A G5U U20A A24G A25U U34C C42U: the self-cleavage turned out to be 0. Turning to G1A C13U C31U G44C, the self-cleavage was found to be 0.06. As for G1A G7U U20C G27C G36U, the self-cleavage turned out to be 0.03.

For G1A C3U G35A A41G, the self-cleavage was 1.68.

Consider G1A C15U G30U, for which the self-cleavage was found to be 0.13.

With G1A A24U A25U U32C C37A, the self-cleavage came to 0.05. Next, G1A C18A U20G G40C: 0.01; G1A C10U A11C A14G A24U C31A G44A: 0.02; G1A C3U C23U G30U A41U C45A: 0.99.

For the variant G1A G7C C8A A11U, the self-cleavage amounted to 0.05.

As to G1A G19A C23A G33C A39G G44A C46G, the self-cleavage is 0.04. As to G1A C23G C31U G35U, the self-cleavage came to 0.02. Next, G1A G2C C10A G21A A25G C42A: 0.02.

Regarding G1A G7A G29U C46G, the self-cleavage was 0.19.

On to G1A C3U G7C G17C, for which the self-cleavage worked out at 0.46. As for G1A G2A G19A, the self-cleavage came to 0.08. Next, G1A C10U G30U U34G C45U: 0.09.

For G1A C13A A41C U43A, the self-cleavage was 0.03. Regarding G1A C3A U20G C23U G27C C31A C37G C45U, the self-cleavage was determined as 2.

As to G1A C15U G19U A24C G30A, the self-cleavage was determined as 0.04. On to G1A G17C G19C, for which the self-cleavage came to 0.24. For G1A C3A G7U G21A C45G, the self-cleavage was determined as 1.

Take G1A G5U A24C: the self-cleavage came out at 0.13. Consider G1A G7U C15A C37A, for which the self-cleavage amounted to 0.35.

As to G1A G2U C3U A4G G5C C23A, the self-cleavage is 0.69.

Regarding G1A C13A G29U, the self-cleavage is 0.19. In the case of G1A C42G C46U, the self-cleavage was determined as 0.05. To G1A G17U G35U belongs 0. G1A G17U G35A: the self-cleavage was 0.1.

Consider G1A G17C A39U, for which the self-cleavage stood at 0.29. On to G1A G2U C42A, for which the self-cleavage was determined as 0.07.

For the variant G1A G2U C42U, the self-cleavage worked out at 0.16. To G1A C10G A39G belongs 0.1; to G1A C15G A16G, 0.15. To G1A G17C C18A G21A G36A belongs 0.28. To G1A G2A G17C G21A G22A C31A A39C belongs 0.07; to G1A C13A A14U U34C, 0.05. On to G1A C8G C15U, for which the self-cleavage came out at 0.43. Regarding G1A C8G C15A, the self-cleavage worked out at 0.11. G1A G5C C8U C10U U38C: the self-cleavage worked out at 0.07.

With G1A C3U C13A, the self-cleavage stood at 0.9. Turning to G1A C3U C13U, the self-cleavage was 0.3. As for G1A C13U C18U G27C, the self-cleavage stood at 0.08.

For G1A A25C G27C U28G C31U, the self-cleavage amounted to 0.48. To G1A C13U G29C G33C U34A A39G belongs 0.05.

Regarding G1A C3A A11G, the self-cleavage was 0.77. For G1A C3U A6U G29U, the self-cleavage came to 1.1. To G1A G2A G35U belongs 0.23. Regarding G1A G5A C10U A12U C18G G22C A39U U43A, the self-cleavage was 0.16. Next, G1A C3G A39G: 0.26. For G1A G19C C37A, the self-cleavage was 0.02. To G1A C3G A14U A39G belongs 0.11; to G1A G2U A12G, 0.06; to G1A C15A C18U G44A, 0.06. As for G1A C37A G40C, the self-cleavage was determined as 0.04. Take G1A A39C C46A: the self-cleavage amounted to 0.3. As for G1A G2C G29U C42G, the self-cleavage is 0.05.

For the variant G1A C3U G5C A11U G29C C31U, the self-cleavage is 0.06. As to G1A G7U G33C, the self-cleavage came to 0.3. Consider G1A C10A C46A, for which the self-cleavage was 0.03. With G1A C10A G19A U28A U34G G40C, the self-cleavage was 0.02. For the variant G1A G5U U20A G27A G36C U38C C42U, the self-cleavage worked out at 0.15. For G1A C18U G19U G21C, the self-cleavage worked out at 0.46. As to G1A G21C C23A G35U, the self-cleavage turned out to be 0.08. On to G1A C15G C18U G33A C46U, for which the self-cleavage amounted to 0.04.

Consider G1A G5C A16G G19U G22C C37A, for which the self-cleavage came to 0.04. To G1A G2C A11U A39U belongs 0.01; to G1A C18A C23A C42A, 0.03; to G1A C8U G21U G29A G35A A41U, 0.07. Next, G1A C3G C15G G21C: 0.06; G1A C3U U9C G19A U32A: 0.09.

G1A G2A C10G G35A G40A: the self-cleavage was found to be 0.06. For G1A G7C U38C G44A, the self-cleavage is 0.54. As to G1A C8G G40A, the self-cleavage was 0.05. For G1A C13U G30U C45U, the self-cleavage turned out to be 0.09. As for G1A C15G G19C G40U, the self-cleavage worked out at 0.03.

For the variant G1A G17A C37A, the self-cleavage came to 0.16. To G1A C10U G21C belongs 0.23. On to G1A C8G G19A G27U U34A, for which the self-cleavage was 0.08. Consider G1A G7C A11C A12G G21A G22U A26U C45A, for which the self-cleavage is 0.02. Regarding G1A C31U U32C U34C, the self-cleavage amounted to 0.05.

With G1A C10U C45A C46U, the self-cleavage worked out at 0.07. Consider G1A C18G G22A G44A, for which the self-cleavage is 0.2.

Regarding G1A G2C G30U, the self-cleavage was 0.59.

As to G1A C15A C42U C46U, the self-cleavage was 0.1.

For the variant G1A C10A A41U, the self-cleavage came to 0.02. As to G1A C18A U20G G35U G36A, the self-cleavage worked out at 0.06.

Turning to G1A A24G U32A, the self-cleavage came to 0.11. In the case of G1A G5A U9C C10A, the self-cleavage amounted to 0.66. Next, G1A C8A U20C C23G: 0.43; G1A G2U U9A C13G U32A: 0.1; G1A G2U C3U U9G G17C U34A A41C: 0.19. As to G1A C8A U34G, the self-cleavage was 0.26. Turning to G1A G2A A25U U34A, the self-cleavage stood at 0.16. Turning to G1A C23G C31G, the self-cleavage worked out at 0.13. With G1A C10U C31A G36U G44A, the self-cleavage came to 0.04. As to G1A G19A U20A C23U G35C, the self-cleavage is 0.07. Regarding G1A G2A A14U, the self-cleavage worked out at 1.02.

Turning to G1A G2U C15A A24C G29U, the self-cleavage is 0.09. To G1A C8G A25C belongs 0.2; to G1A C10G A12C U38G G40U, 0.03. In the case of G1A G7A C10U G40A, the self-cleavage came to 0.03. With G1A C8A C10A U28C, the self-cleavage came to 0.08. In the case of G1A G17U A24U G33C, the self-cleavage came to 0.05. Consider G1A A41C G44U, for which the self-cleavage was 0.08. As for G1A C31U G44A, the self-cleavage came to 0.09. Next, G1A C13A C45A: 0.2; G1A G7U A24C G27A: 0.57; G1A G2A G19A G29U: 2.02.

For the origin of these results see the RNAGym collection of RNA variant scans (doi:10.7554/elife.90254).
